The other results are listed elsewhere or left out.
What was measured:
Experiment in all cases: glycan array binding signal (z-score within array); higher = stronger binding
Conditions in all cases: glycan notation: IUPAC condensed, linker removed
Gal(b1-3)Gal(b1-4)GlcNAc = target: Gal(b1-3)Gal(b1-4)GlcNAc
How it was run: (§1)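 Glycan array data came from 3228 arrays in the Consortium for Functional Glycomics database, and only arrays with an available protein sequence were kept. Glycan names were put into IUPAC-condensed notation, and columns mapping to the same glycan were averaged. The binding signal is a within-array Z-score, averaged across arrays of one protein sequence run at different concentrations or buffers and across linkers. A negative Z-score can be read as non-binding.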

[1] = target: Gal(b1-3)Gal(b1-4)GlcNAc(b1-2)Man(a1-3)[Gal(b1-3)Gal(b1-4)GlcNAc(b1-2)Man(a1-6)]Man(b1-4)GlcNAc(b1-4)GlcNAc
How it was run: as §1

Gal(b1-3)GalNAc = target: Gal(b1-3)GalNAc
How it was run: as §1

[2] = target: Gal(b1-3)GalNAc(a1-3)[Fuc(a1-2)]Gal(b1-4)Glc
How it was run: as §1

[3] = target: Gal(b1-3)GalNAc(a1-3)[Fuc(a1-2)]Gal(b1-4)GlcNAc
How it was run: as §1

[4] = target: Gal(b1-3)GalNAc(b1-3)Gal(a1-4)Gal(b1-4)Glc
How it was run: as §1

[5] = target: Gal(b1-3)GalNAc(b1-4)Gal(b1-4)Glc
How it was run: as §1

[6] = target: Gal(b1-3)GalNAc(b1-4)[Neu5Ac(a2-3)]Gal(b1-4)Glc
How it was run: as §1

Gal(b1-3)GlcNAc = target: Gal(b1-3)GlcNAc
How it was run: as §1

[7] = target: Gal(b1-3)GlcNAc(b1-2)Man(a1-3)[Gal(b1-3)GlcNAc(b1-2)Man(a1-6)]Man(b1-4)GlcNAc(b1-4)GlcNAc
How it was run: as §1

[8] = target: Gal(b1-3)GlcNAc(b1-2)Man(a1-3)[Gal(b1-3)GlcNAc(b1-2)Man(a1-6)]Man(b1-4)GlcNAc(b1-4)[Fuc(a1-6)]GlcNAc
How it was run: as §1

[9] = target: Gal(b1-3)GlcNAc(b1-3)Gal(b1-3)GlcNAc
How it was run: as §1

[10] = target: Gal(b1-3)GlcNAc(b1-3)Gal(b1-4)Glc
How it was run: as §1

[11] = target: Gal(b1-3)GlcNAc(b1-3)Gal(b1-4)GlcNAc
How it was run: as §1

[12] = target: Gal(b1-3)[Fuc(a1-4)]GlcNAc
How it was run: as §1

[13] = target: Gal(b1-3)[Fuc(a1-4)]GlcNAc(b1-2)Man(a1-3)[Gal(b1-3)[Fuc(a1-4)]GlcNAc(b1-2)Man(a1-6)]Man(b1-4)GlcNAc(b1-4)GlcNAc
How it was run: as §1

[14] = target: Gal(b1-3)[Fuc(a1-4)]GlcNAc(b1-2)Man(a1-3)[Gal(b1-3)[Fuc(a1-4)]GlcNAc(b1-2)Man(a1-6)]Man(b1-4)GlcNAc(b1-4)[Fuc(a1-6)]GlcNAc
How it was run: as §1

[15] = target: Gal(b1-3)[Fuc(a1-4)]GlcNAc(b1-3)Gal(b1-3)[Fuc(a1-4)]GlcNAc
How it was run: as §1

[16] = target: Gal(b1-3)[Fuc(a1-4)]GlcNAc(b1-3)Gal(b1-4)GlcNAc
How it was run: as §1

[17] = target: Gal(b1-3)[Fuc(a1-4)]GlcNAc(b1-3)Gal(b1-4)[Fuc(a1-3)]GlcNAc
How it was run: as §1

[18] = target: Gal(b1-3)[GlcNAc(b1-6)]GalNAc
How it was run: as §1

[19] = target: Gal(b1-3)[Neu5Ac(a2-6)]GalNAc
How it was run: as §1

[20] = target: Gal(b1-3)[Neu5Ac(a2-6)]GlcNAc(b1-6)Gal(b1-4)Glc
How it was run: as §1

[21] = target: Gal(b1-3)[Neu5Ac(b2-6)]GalNAc
How it was run: as §1

[22] = target: Gal(b1-4)GalNAc(a1-3)[Fuc(a1-2)]Gal(b1-4)GlcNAc
How it was run: as §1

[23] = target: Gal(b1-4)GalNAc(b1-3)[Fuc(a1-2)]Gal(b1-4)GlcNAc
How it was run: as §1

Gal(b1-4)Glc = target: Gal(b1-4)Glc
How it was run: as §1

Gal(b1-4)Glc6S = target: Gal(b1-4)Glc6S
How it was run: as §1

Gal(b1-4)GlcNAc = target: Gal(b1-4)GlcNAc
How it was run: as §1

[24] = target: Gal(b1-4)GlcNAc(a1-6)Gal(b1-4)GlcNAc
How it was run: as §1

[25] = target: Gal(b1-4)GlcNAc(b1-2)Man(a1-3)Man(b1-4)GlcNAc(b1-4)GlcNAc
How it was run: as §1

[26] = target: Gal(b1-4)GlcNAc(b1-2)Man(a1-3)[Gal(b1-4)GlcNAc(b1-2)Man(a1-6)]Man(b1-4)GlcNAc(b1-4)GlcNAc
How it was run: as §1

[27] = target: Gal(b1-4)GlcNAc(b1-2)Man(a1-3)[Gal(b1-4)GlcNAc(b1-2)Man(a1-6)]Man(b1-4)GlcNAc(b1-4)[Fuc(a1-6)]GlcNAc
How it was run: as §1

[28] = target: Gal(b1-4)GlcNAc(b1-2)Man(a1-3)[Man(a1-6)]Man(b1-4)GlcNAc(b1-4)GlcNAc
How it was run: as §1

[29] = target: Gal(b1-4)GlcNAc(b1-2)Man(a1-6)Man(b1-4)GlcNAc(b1-4)GlcNAc
How it was run: as §1

[30] = target: Gal(b1-4)GlcNAc(b1-2)Man(a1-6)[Man(a1-3)]Man(b1-4)GlcNAc(b1-4)GlcNAc
How it was run: as §1

[31] = target: Gal(b1-4)GlcNAc(b1-2)[Gal(b1-4)GlcNAc(b1-4)]Man(a1-3)[Gal(b1-4)GlcNAc(b1-2)Man(a1-6)]Man(b1-4)GlcNAc(b1-4)GlcNAc
How it was run: as §1

Binder: GIINTLQKYYCRVRGGRCAVLSCLPKEEQIGKCSTRGRKCCRRKK [Beta-Defensin 3 (Homo sapiens), P81534]
- glycan array binding signal (z-score) (Gal(b1-3)Gal(b1-4)GlcNAc): -0.281
- glycan array binding signal (z-score) [1]: -0.659
- glycan array binding signal (z-score) (Gal(b1-3)GalNAc): 0.052
- glycan array binding signal (z-score) [2]: -0.292
- glycan array binding signal (z-score) [3]: -0.234
- glycan array binding signal (z-score) [4]: -0.464
- glycan array binding signal (z-score) [5]: -0.315
- glycan array binding signal (z-score) [6]: -0.33
- glycan array binding signal (z-score) (Gal(b1-3)GlcNAc): -0.245
- glycan array binding signal (z-score) [7]: -0.507
- glycan array binding signal (z-score) [8]: -0.62
- glycan array binding signal (z-score) [9]: -0.29
- glycan array binding signal (z-score) [10]: -0.348
- glycan array binding signal (z-score) [11]: -0.455
- glycan array binding signal (z-score) [12]: -0.042
- glycan array binding signal (z-score) [13]: -0.319
- glycan array binding signal (z-score) [14]: -0.661
- glycan array binding signal (z-score) [15]: -0.457
- glycan array binding signal (z-score) [16]: -0.493
- glycan array binding signal (z-score) [17]: -0.287
- glycan array binding signal (z-score) [18]: -0.46
- glycan array binding signal (z-score) [19]: 0.272
- glycan array binding signal (z-score) [20]: -0.543
- glycan array binding signal (z-score) [21]: 0.323
- glycan array binding signal (z-score) [22]: -0.395
- glycan array binding signal (z-score) [23]: -0.359
- glycan array binding signal (z-score) (Gal(b1-4)Glc): 0.122
- glycan array binding signal (z-score) (Gal(b1-4)Glc6S): 0.789
- glycan array binding signal (z-score) (Gal(b1-4)GlcNAc): -0.279
- glycan array binding signal (z-score) [24]: -0.57
- glycan array binding signal (z-score) [25]: -0.408
- glycan array binding signal (z-score) [26]: -0.62
- glycan array binding signal (z-score) [27]: -0.692
- glycan array binding signal (z-score) [28]: -0.423
- glycan array binding signal (z-score) [29]: -0.517
- glycan array binding signal (z-score) [30]: -0.346
- glycan array binding signal (z-score) [31]: -0.572

From the supplement of paper PMC8728848
